Assay results: the supplement of paper PMC12340641
The full ranking holds about 1,000 compounds; the median of “relative growth recovery (pomalidomide 10 uM = 100%, DMSO = 0%)” is about -1.6, and the highest 2% start at about 21. Some of the results follow.

System: HEK293FT dCK*-IKZF1
Assay: relative growth recovery (pomalidomide 10 uM = 100%, DMSO = 0%); higher = more growth rescue (IKZF1 fusion degradation)
Conditions: compound concentration: 5 uM; AraC concentration: 0.3 uM; overnight pretreatment + 4 days AraC
Procedure: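 Growth recovery screen of the molecular-glue-like (Specs) library. HEK293FT cells expressing a dCK*-IKZF1 fusion (primary) or dCK* alone (counter) were pretreated overnight with compound at 5 uM, then given 0.3 uM AraC for 4 days. Hoechst nuclei were counted by imaging. Primary: normalised to pomalidomide (100%) and DMSO (0%), mean of 2 replicates. Counter: normalised to no-AraC (100%) and AraC+DMSO (0%), single replicate.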

| Structure (SMILES) | relative growth recovery |
| --- | --- |
| CCCCc1cnc(Nc2cccc(C3CCN(C(=O)[C@@H]4CCCCN4CCO)CC3)n2)s1 | -11% |
| Cc1ccc(OCCCC(=O)Nc2ccc(S(=O)(=O)Nc3nc(C)cc(C)n3)cc2)cc1 | -0.85% |
| COc1cc(NS(=O)(=O)c2ccc(Nc3nc(-c4sc(N)nc4C)cs3)cc2)nc(OC)n1 | -3.96% |
| Nc1ccc(S(=O)(=O)Nc2nccc(/C=C/c3ccccc3F)n2)cc1 | -0.59% |
| O=C(/C=C/c1ccccc1)N1CCC(c2csc(Nc3ccc(F)cn3)n2)CC1 | -2.47% |
| CC(C)(C)C(=O)N1CCOC(c2cccc(Nc3ncc(Cc4ccccc4Cl)s3)n2)C1 (stereo not drawn) | 1.07% |
| CCCC(=O)Nc1ccc(S(=O)(=O)Nc2ncccn2)cc1 | 0.76% |
| CN(CCC(=O)N1CCOC(c2cccc(Nc3nccs3)n2)C1)c1cccc(F)c1 (stereo not drawn) | -1.83% |
| CCOCc1ccc(C(=O)N2CCC(c3cccc(Nc4ncc(C)s4)n3)CC2)cc1 | 29.5% |
| Cc1cc(NS(=O)(=O)c2ccc(NC(=O)C(C)C)cc2)nc(C)n1 | -8.98% |
| COc1ccc(C(=O)Nc2ccc(S(=O)(=O)Nc3nccc(C)n3)cc2)cc1[N+](=O)[O-] | 2.66% |
| Cc1cnc(Nc2cccc(C3CCN(C(=O)C4CC(=O)OC45CCCCC5)CC3)n2)s1 (stereo not drawn) | -16.7% |
| CCCC(C)C(=O)Nc1ccc(S(=O)(=O)Nc2nccc(C)n2)cc1 (stereo not drawn) | 2.04% |
| CN(CCC(=O)N1CCCC1c1cccc(Nc2nccs2)n1)c1ccccc1F (stereo not drawn) | 7.22% |
| Cc1cc(C)nc(NS(=O)(=O)c2ccc(NC(=O)C(C)C)cc2)n1 | -7.38% |
| Cc1cc(C)nc(NS(=O)(=O)c2ccc(NC(=S)NC(=O)c3cccnc3)cc2)n1 | -4.47% |
| Cc1cc(C)nc(NS(=O)(=O)c2ccc(NC(=O)CSc3nc4c(cc3C#N)CCCCC4)cc2)n1 | -5.67% |
| CCOC(=O)C(=O)Nc1ccc(S(=O)(=O)Nc2ncccn2)cc1 | 0.66% |
| Cc1cc(C)nc(NS(=O)(=O)c2ccc(NC(=O)c3cccs3)cc2)n1 | -4.97% |
| Cc1nc(/C=C/C(=O)N2CCC(c3cc4ccccc4c(Nc4nccs4)n3)CC2)cs1 | -17.8% |
| COc1ccc(S(=O)(=O)Nc2cccc3cn[nH]c23)c(C)c1C | -0.345% |
| Cc1nc(Nc2cccc(C3CCN(C(=O)C4CC=CCC4)CC3)n2)sc1C (stereo not drawn) | -3.09% |
| Cc1cnc(Nc2cccc(C3CCCN3C(=O)c3nccc4ccccc34)n2)s1 (stereo not drawn) | 2.39% |
| COc1ccc(C(=O)Nc2ccc(S(=O)(=O)Nc3nccc(C)n3)cc2)cc1 | -3.71% |

| Structure (SMILES) | relative growth recovery |
| --- | --- |
| Cc1cc(C)c(C(=O)Nc2ccc(S(=O)(=O)Nc3cc(C)nc(C)n3)cc2)c(C)c1 | -1.16% |
| Cc1cc(C)nc(NS(=O)(=O)c2ccc(NC(=O)c3ccccc3C)cc2)n1 | 2.68% |
| Cc1cc(NS(=O)(=O)c2ccc(NC(=O)CCCOc3ccc(Cl)cc3)cc2)nc(C)n1 | -1.54% |
| Cc1cc(C)c2[nH]c3nc(SCC(=O)Nc4ccc(Cl)c([N+](=O)[O-])c4)nnc3c2c1 | -13% |
| O=C(Nc1ccc(S(=O)(=O)Nc2ncccn2)cc1)c1ccco1 | -3.85% |
| CC(=O)Oc1ccc(N2C(=O)c3ccc(Oc4cccc(N)c4)cc3C2=O)cc1 | -2.16% |
| COc1ccc(OCC(=O)Nc2ccc(S(=O)(=O)Nc3nc(C)cc(C)n3)cc2)cc1 | 2.2% |
| CC(C)C(=O)N1CCCC1c1csc(Nc2ccccn2)n1 (stereo not drawn) | 1.14% |
| Cc1nc(Nc2cccc(C3CCCN3C(=O)COc3ccc(F)cc3F)n2)sc1C (stereo not drawn) | 1.31% |
| COCC(=O)N1CCOC(c2cccc(Nc3nc(C)cs3)n2)C1 (stereo not drawn) | 2.9% |
| O=[N+]([O-])c1ccc(S(=O)(=O)Nc2ccccn2)cc1 | 3.84% |
| CC(=O)N1CCC(c2csc(Nc3ncccc3C)n2)CC1 | 2.94% |
| O=C(CSc1nnc2c(n1)[nH]c1ccc(F)cc12)Nc1ccc(F)cc1 | 1.55% |
| Cc1ccc(OCC(=O)Nc2ccc(S(=O)(=O)Nc3ccccn3)cc2)cc1 | -2.1% |
| CC(C)c1ccc(OCC(=O)Nc2ccc(S(=O)(=O)Nc3ccccn3)cc2)cc1 | 2.78% |
| CN(C)CC1(c2cccc(Nc3ncc(-c4ccccc4)s3)n2)CCN(C(=O)C(C)(C)N)CC1 | -17.3% |
| Cc1ccnc(NS(=O)(=O)c2ccc(NC(=O)c3ccccc3C)cc2)n1 | -1.84% |
| Cc1cnc(Nc2cccc(C3CCN(CC(=O)Nc4ccccc4F)CC3)n2)s1 | -9.93% |
| Cc1cc(C)nc(NS(=O)(=O)c2ccc(Nc3nc(-c4ccc(Cl)cc4)cs3)cc2)n1 | -0.855% |
| O=C(C1CCCCC1)N1CCC(Cc2cccc(Nc3nccs3)n2)CC1 | 4.47% |
| Cn1nccc1/C=C/C(=O)N1CCC(c2cc3ccccc3c(Nc3nccs3)n2)CC1 | -16.9% |
| COc1ccc(N2CC(C(=O)Nc3ccc(S(=O)(=O)Nc4nc(C)cc(C)n4)cc3)CC2=O)cc1 (stereo not drawn) | -2.15% |
| CCC(Oc1ccccc1)C(=O)Nc1ccc(S(=O)(=O)Nc2ncccn2)cc1 (stereo not drawn) | 78.9% |
| Cc1ccc(C)c2c1[nH]c1nc(SCC(=O)Nc3ccc(Cl)c(C(F)(F)F)c3)nnc12 | -3.91% |
